# Measurements reported in PMC6212790.
# This is one part of the list. At the low end of the ranking the order means little.
# Target: T1, GST-Rok-C97-191 (UniProt O34857)
# T1 sequence: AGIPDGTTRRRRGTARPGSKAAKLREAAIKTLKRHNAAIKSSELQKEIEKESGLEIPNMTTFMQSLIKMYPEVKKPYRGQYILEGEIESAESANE
# Assay: protein binding microarray;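 further: rank score from −0.5 (least bound) to 0.5 (best bound)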
# Settings: Rok is a gene silencer of Bacillus subtilis; high values mean tight binding; most listed sequences are background and not binding sites; double strand, one strand shown
row,Sequence,binding signal [E-score]
1,CACCCGCG,-0.321
2,TCTAAAAA,0.0481
3,AGGAAACG,-0.173
4,CCGTGACC,-0.166
5,ACAAGGCT,-0.249
6,AATCGGGC,-0.175
7,GTTTTTGA,-0.0121
8,ATTATGAG,-0.00845
9,GATCTGCC,-0.222
10,CGGAGGCA,-0.228
11,TGCAAACA,-0.179
12,AAATCTAG,0.352
13,ACATGCCT,0.0246
14,CCCATCGC,-0.131
15,AGTGGGTG,0.0718
16,TTGTGAAA,0.0603
17,AAGTCCGA,-0.251
18,AAACGTGG,-0.137
19,ACTTCGAT,0.162
20,ATCCCATG,-0.107
21,AGACAGTG,-0.301
22,ACCGCCCC,-0.219
23,GCCGGACC,-0.289
24,GCCATGCC,-0.144
25,ACATCAAC,0.0583

row,Sequence,binding signal [E-score]
1,AGGCAGAG,-0.0377
2,GAACGTGA,-0.119
3,ATCAAATC,0.0661
4,AACAGGAT,-0.104
5,ATACAGGA,0.0797
6,GTCTTTTA,0.0872
7,TATCACCA,0.0699
8,ACTGTGGG,-0.27
9,CGGCCTTC,-0.297
10,AATGAACC,-0.0713
11,CAAAGTCA,-0.142
12,CCTCTTGC,-0.00641
13,TTCTCAAA,0.142
14,AGCTGGAA,-0.0644
15,ACCACTTC,-0.137
16,CACTAAAC,-0.0842
17,GCAGAACA,-0.168
18,CCGATCTA,0.27
19,ATAACAGG,-0.0508
20,AGGCCAAA,-0.232
21,CAGGCTTC,-0.29
22,ATATTCTC,0.327
23,TAGGCAGA,0.0287
24,TACAAAAA,-0.00375
25,ACTCCATA,0.12

row,Sequence,binding signal [E-score]
1,CCGATCTC,-0.0877
2,TTCGACAA,0.172
3,AGGAAGGC,-0.202
4,ACACGACC,-0.0303
5,AGGATACT,0.0521
6,ATGACGCC,-0.151
7,ACCCCACC,-0.267
8,ATTACTTC,0.28
9,AATCCCGC,0.00826
10,AATAAGCG,-0.0283
11,CCTCGGCG,-0.236
12,CCGAACTA,0.283
13,GACCAGTA,-0.136
14,TCACCGGA,-0.0782
15,ACAGAAGT,0.157
16,AGGGATAT,0.117
17,ACCAAATG,0.12
18,CTAGGACA,0.0572
19,AGAATCGG,0.0769
20,ATGCAGAA,0.195
21,CCACGACA,-0.254
22,GTTCTAAA,-0.072
23,ACCCTGAT,-0.17
24,CTGTATTC,-0.119
25,GCACTAGA,0.0446

row,Sequence,binding signal [E-score]
1,ATTAGCTG,0.285
2,AAAACGAT,0.0564
3,CGTCTCGA,-0.212
4,ACCTACCG,0.148
5,CATTAAAC,-0.118
6,CTGGCCAA,-0.0242
7,GGCGTAAA,-0.0507
8,GAAGTAAC,0.08
9,ATACAGCC,-0.129
10,TAAATGGA,0.0913
11,AGGCCGGA,-0.102
12,ACGGATAC,-0.124
13,GCATGCAA,-0.0249
14,AGCGAGTG,-0.209
15,TAATTCGA,0.207
16,AAGTTCTC,0.106
17,CAGTGATA,0.123
18,ATCCACGA,0.0799
19,CCAAGTGA,-0.0437
20,CGCTAGGC,0.00451
21,GTTAGTAA,0.163
22,GACTCTGC,-0.28
23,GCCAGTAA,-0.198
24,GAGTAAAA,0.269
25,CAGAATAC,-0.0359

row,Sequence,binding signal [E-score]
1,CAAAGTGG,-0.00341
2,GAAAACCC,-0.0637
3,ATTTTGAG,0.058
4,ACCTAACC,-0.123
5,CTTTTGTA,0.241
6,ACAATAGG,0.238
7,TCACCCGA,-0.093
8,CTCGAAAA,-0.124
9,CTGGGTTC,-0.0789
10,GACAGCAC,-0.165
11,GAGCGCAA,-0.0463
12,GTTATAGA,0.128
13,CTAAATCA,0.0393
14,CCCGACCC,-0.31
15,CTGCTGGC,-0.199
16,AGGGTCAG,-0.216
17,CCGACAAA,-0.148
18,CTACGACA,0.104
19,GAAGCCAC,-0.199
20,AAACGGTT,-0.0305
21,GTATGCGA,0.013
22,CAGTAGCC,-0.0922
23,CGTCAGGC,-0.192
24,ACTTCTGG,0.0906
25,GGGGAAAC,0.0197

row,Sequence,binding signal [E-score]
1,GCGCCCAA,-0.261
2,ACCACGTC,-0.195
3,CCTGGTTC,-0.4
4,CAACGCTC,-0.215
5,CAACGAAG,-0.0928
6,GAAACGAC,-0.198
7,ACCACTGA,0.0869
8,CGGCCTAA,-0.152
9,CCTAGAGA,-0.0834
10,GGTATTCA,0.0513
11,ATGCCCCG,-0.0948
12,CTAGACGA,0.024
13,CTGAGACC,-0.227
14,CATGTCCC,-0.16
15,GACATTAC,0.0945
16,CCGCACGG,-0.178
17,AGACCTAC,-0.0941
18,CCTCTAGC,-0.145
19,AGGTACAG,0.077
20,CATCAGCC,-0.19
21,AAGATGCG,-0.081
22,AATTTTTG,0.175
23,CACTTACA,0.0869
24,AATGGGTG,0.133
25,GCCATGCA,-0.208

row,Sequence,binding signal [E-score]
1,ACTCCAGT,0.0136
2,CGCCACCA,-0.256
3,CCAATTGG,-0.196
4,GATTACCA,0.14
5,CTGACAAC,0.16
6,CAGGTCGA,-0.0908
7,GTTCTAGA,0.132
8,CTCTACCA,0.159
9,ACATTAGT,0.247
10,GATCCAGA,-0.053
11,CTTGTCTA,-0.0276
12,CTCCAAAC,0.0111
13,CTTACCTA,0.203
14,GGTCAACA,-0.115
15,GCGTAATA,0.183
16,CTGCCGAA,-0.111
17,GAAACCGA,-0.127
18,TATATTGA,0.288
19,AGCCATGA,-0.0665
20,GTGGACAC,-0.258
21,GAGGCTAC,-0.296
22,CCCATTTC,0.0795
23,CGGCCTGA,-0.244
24,CAAGAGGG,-0.213
25,TAACATTA,0.234

row,Sequence,binding signal [E-score]
1,GACAGTAA,0.144
2,AGTCTGAG,0.0475
3,AGTAACAA,0.207
4,AGCCGTTA,0.0336
5,TACTTATA,0.331
6,ACTCTAAC,0.113
7,CGGGGAGC,-0.375
8,ACTGCACG,-0.143
9,AGGCCCAC,-0.329
10,ATAGTTAA,0.327
11,TCTGGCAA,-0.0496
12,ACATCGAG,0.0748
13,CATGATGA,0.0928
14,GCGAGCTA,0.0373
15,ACTAGATC,0.335
16,AAGGAAAC,-0.325
17,ACTGAATA,0.121
18,ACAAGCAA,0.0415
19,CAGCCCTC,-0.135
20,CTAGGAAA,0.0148
21,CACGGAGC,-0.133
22,AAGTTAGG,0.0911
23,TAGATGGA,-0.0485
24,TAGTGCAA,0.19
25,GAGTGGAA,-0.185

row,Sequence,binding signal [E-score]
1,ACCTGCGG,-0.0697
2,AGTATCGG,0.0653
3,GACCGATA,0.0176
4,CCGCCTCG,-0.172
5,TACAGTAA,0.319
6,ACGCAACC,-0.00125
7,AATTTCAA,0.139
8,ATGAAGTA,0.232
9,CTGTCAGA,-0.0787
10,AGTGAACC,-0.0543
11,CTATCGAG,0.122
12,CAGTCCAG,-0.242
13,CCTAGGAA,0.0104
14,AGTAATCA,0.152
15,ACCGAGTC,-0.0145
16,AAGCGCGA,-0.00804
17,CACAATTA,0.196
18,GCAGATAA,0.127
19,CGTGGAAC,-0.156
